At least one read-out could not be matched to a standard name with certainty.
Tested on: p53 in U87MG cells
Experiment: p53 ELISA (preservation of p53 in U87MG cells)
Type: cell-based, human
Details: lowest dose giving at least 130% of the value for p53 present in the control; U87MG cells treated 16 hours

Row | Structure (SMILES) | p53-elisa LAD
1 | COCCOCc1cc(Nc2ccc(NCCc3c[nH]c4ccccc34)cc2)ccn1 [Compound 169] | >1.00E−05
2 | c1ccc(CCCCNCc2cc(Nc3ccc(NCCc4c[nH]c5ccccc45)cc3)ccn2)cc1 [Compound 170] | 3.00E−07
3 | c1ccc(CCCOCc2cc(Nc3ccc(NCCc4c[nH]c5ccccc45)cc3)ccn2)cc1 [Compound 171] | >1.00E−05
4 | COC(=O)CCOCc1cc(Nc2ccc(NCCc3c[nH]c4ccccc34)cc2)ccn1 [Compound 172] | >1.00E−05
5 | O=c1cc(Nc2ccc(NCCc3c[nH]c4ccccc34)cc2)cc[nH]1 [Compound 173] | >1.00E−05
6 | CCOCCOCc1cc(Nc2ccc(NCCc3c[nH]c4ccccc34)cc2)ccn1 [Compound 174] | >1.00E−05
7 | COCCOCc1cc(Nc2ccc(NCCc3c[nH]c4cc(OC)ccc34)cc2)ccn1 [Compound 175] | >1.00E−05
8 | CCOc1cc(Nc2ccnc(COCCOC)c2)ccc1NCCc1c[nH]c2cc(OC)ccc12 [Compound 176] | 3.00E−06
9 | CCOc1cc(Nc2ccncc2)ccc1NCCc1c[nH]c2cc(OC)ccc12 [Compound 177] | 3.00E−07
10 | COC(=O)c1cc(Nc2ccc(NCCc3c[nH]c4cc(OC)ccc34)cc2)ccn1 [Compound 178] | >1.00E−05
11 | COc1cc(Nc2ccnc(CO)c2)ccc1NCCc1c[nH]c2ccccc12 [Compound 179] | 3.00E−06
12 | COc1ccc2c(CCNc3ccc(Nc4ccnc(CO)c4)cc3)c[nH]c2c1 [Compound 180] | >1.00E−05
13 | COc1ccc2c(CCNc3ccc(Nc4ccnc(CO)c4)cc3OC)c[nH]c2c1 [Compound 181] | 3.00E−07
14 | Clc1ccc2[nH]cc(CCNc3ccc(Nc4ccncc4)cc3)c2c1 [Compound 182] | >1.00E−05
15 | Cc1ccc2c(CCNc3ccc(Nc4ccncc4)cc3)c[nH]c2c1 [Compound 183] | 1.00E−05
16 | Fc1ccc2c(CCNc3ccc(Nc4ccncc4)cc3)c[nH]c2c1 [Compound 184] | >1.00E−05
17 | Cc1ccc2[nH]cc(CCNc3ccc(Nc4ccncc4)cc3)c2c1 [Compound 185] | 3.00E−06
18 | Clc1cccc2[nH]cc(CCNc3ccc(Nc4ccncc4)cc3)c12 [Compound 186] | 1.00E−06
19 | Cc1cccc2c(CCNc3ccc(Nc4ccncc4)cc3)c[nH]c12 [Compound 187] | 1.00E−06
20 | COc1cccc2c(CCNc3ccc(Nc4ccncc4)cc3)c[nH]c12 [Compound 188] | 1.00E−06

Row | Structure (SMILES) | p53-elisa LAD
21 | Cc1ccc2[nH]cc(CCNc3ccc(Nc4ccnc(CO)c4)cc3)c2c1 [Compound 189] | >1.00E−05
22 | c1cnc2[nH]cc(CCNc3ccc(Nc4ccncc4)cc3)c2c1 [Compound 190] | >1.00E−05
23 | COc1cccc2[nH]cc(CCNc3ccc(Nc4ccncc4)cc3)c12 [Compound 191] | >1.00E−05
24 | Brc1ccc2c(CCNc3ccc(Nc4ccncc4)cc3)c[nH]c2c1 [Compound 192] | 1.00E−06
25 | OCc1cc(Nc2ccc(NCCc3c[nH]c4cc(F)ccc34)cc2)ccn1 [Compound 193] | 3.00E−06
26 | N#CC=Cc1ccc2c(CCNc3ccc(Nc4ccncc4)cc3)c[nH]c2c1 [Compound 194] | >1.00E−05
27 | O[C@@H]1CCc2c(Nc3ccc(NCCc4c[nH]c5ccccc45)cc3)ccnc21 [Compound 195] | 1.00E−06
28 | COc1ccc2c(CCNc3ccc(Nc4ccnc5c4CCC5O)cc3)c[nH]c2c1 (centres unmarked) [Compound 196] | >1.00E−05
29 | CCOc1cc(Nc2ccnc3c2CCCC3O)ccc1NCCc1c[nH]c2cc(OC)ccc12 (centres unmarked) [Compound 197] | 1.00E−07
30 | c1ccc2c(CCNc3ccc(Nc4ccnc5[nH]ccc45)cc3)c[nH]c2c1 [Compound 198] | 1.00E−06
31 | Clc1cccc(CC(CNc2ccc(Nc3ccncc3)cc2)c2c[nH]c3ccccc23)c1 (centres unmarked) [Compound 199] | >1.00E−05
32 | CC(C)(O)c1cc(Nc2ccc(NCCc3c[nH]c4ccccc34)cc2)ccn1 [Compound 201] | >1.00E−05
33 | CC(=O)OC(C)(C)c1cc(Nc2ccc(NCCc3c[nH]c4ccccc34)cc2)ccn1 [Compound 202] | >1.00E−05
34 | CCC(O)c1cc(Nc2ccc(NCCc3c[nH]c4ccccc34)cc2)ccn1 (centres unmarked) [Compound 203] | >1.00E−05
35 | O=C(c1cc(Nc2ccc(NCCc3c[nH]c4ccccc34)cc2)ccn1)C1CC1 [Compound 204] | >1.00E−05
36 | CCOc1cc(Nc2ccnc(C(C)O)c2)ccc1NCCc1c[nH]c2cc(OC)ccc12 (centres unmarked) [Compound 205] | 3.00E−06
37 | CC(=O)NCc1cc(Nc2ccc(NCCc3c[nH]c4ccccc34)cc2)ccn1 [Compound 206] | >1.00E−05
38 | O=C(C(Cc1c[nH]c2ccccc12)Nc1ccc(Nc2ccncc2)cc1)N(CCCCO)Cc1ccccc1 (centres unmarked) [Compound 207] | >1.00E−05
39 | O=C(C(Cc1c[nH]c2ccccc12)Nc1ccc(Nc2ccncc2)cc1)N1CCCC1CO (centres unmarked) [Compound 208] | 3.00E−06
40 | O=C(C(Cc1c[nH]c2ccccc12)Nc1ccc(Nc2ccncc2)cc1)N1CCC(CO)C1 (centres unmarked) [Compound 209] | >1.00E−05

Row | Structure (SMILES) | p53-elisa LAD
41 | O=C(C(Cc1c[nH]c2ccccc12)Nc1ccc(Nc2ccncc2)cc1)N1CCC(CCO)C1 (centres unmarked) [Compound 210] | >1.00E−05
42 | CN(C)CCN(Cc1ccccc1)C(=O)C(Cc1c[nH]c2ccccc12)Nc1ccc(Nc2ccncc2)cc1 (centres unmarked) [Compound 211] | 3.00E−07
43 | CCN(CCCCO)C(=O)C(Cc1c[nH]c2ccccc12)Nc1ccc(Nc2ccncc2)cc1 (centres unmarked) [Compound 212] | >1.00E−05
44 | CN(CCO)C(=O)C(Cc1c[nH]c2ccccc12)Nc1ccc(Nc2ccncc2)cc1 (centres unmarked) [Compound 213] | 3.00E−06
45 | O=C(C(Cc1c[nH]c2ccccc12)Nc1ccc(Nc2ccncc2)cc1)N(CCO)Cc1ccccc1 (centres unmarked) [Compound 214] | 1.00E−06
46 | COCCN(C)C(=O)C(Cc1c[nH]c2ccccc12)Nc1ccc(Nc2ccncc2)cc1 (centres unmarked) [Compound 215] | >1.00E−05
47 | O=C(C(Cc1c[nH]c2ccccc12)Nc1ccc(Nc2ccncc2)cc1)N1CCCCC1CCCO (centres unmarked) [Compound 216] | 1.00E−06
48 | O=C(C(Cc1c[nH]c2ccccc12)Nc1ccc(Nc2ccncc2)cc1)N1CCC(CCCO)CC1 (centres unmarked) [Compound 217] | >1.00E−05
49 | O=C(C(Cc1c[nH]c2ccccc12)Nc1ccc(Nc2ccncc2)cc1)N1CCCC(CO)C1 (centres unmarked) [Compound 218] | >1.00E−05
50 | CC1(CO)CCCN(C(=O)C(Cc2c[nH]c3ccccc23)Nc2ccc(Nc3ccncc3)cc2)C1 (centres unmarked) [Compound 219] | >1.00E−05
51 | CC(C)(CO)C1CCN(C(=O)C(Cc2c[nH]c3ccccc23)Nc2ccc(Nc3ccncc3)cc2)CC1 (centres unmarked) [Compound 220] | 3.00E−06
52 | CC(CO)(CO)C1CCN(C(=O)C(Cc2c[nH]c3ccccc23)Nc2ccc(Nc3ccncc3)cc2)CC1 (centres unmarked) [Compound 221] | >1.00E−05
53 | COCC1(O)CCN(C(=O)C(Cc2c[nH]c3ccccc23)Nc2ccc(Nc3ccncc3)cc2)CC1 (centres unmarked) [Compound 222] | >1.00E−05
54 | COCC(O)C1CCN(C(=O)C(Cc2c[nH]c3ccccc23)Nc2ccc(Nc3ccncc3)cc2)CC1 (centres unmarked) [Compound 223] | >1.00E−05
55 | O=C(C(Cc1c[nH]c2ccccc12)Nc1ccc(Nc2ccncc2)cc1)N1CCC(CO)CC1 (centres unmarked) [Compound 224] | >1.00E−05
56 | CC(O)C1CCN(C(=O)C(Cc2c[nH]c3ccccc23)Nc2ccc(Nc3ccncc3)cc2)CC1 (centres unmarked) [Compound 225] | >1.00E−05
57 | CC(C)(C)OC(=O)N(CCc1cn(C(=O)OC(C)(C)C)c2ccccc12)c1ccc(Nc2ccncc2)cc1 [Compound 226] | 3.00E−06
58 | CC(C)(C)OC(=O)N(CCc1cn(C(=O)OC(C)(C)C)c2ccccc12)c1ccc(N(c2ccncc2)c2ccncc2)cc1 [Compound 227] | >1.00E−05
59 | c1ccc2c(CCNc3ccc(N(c4ccncc4)c4ccncc4)cc3)c[nH]c2c1 [Compound 228] | 1.00E−06
